Reference: paper PMC3620054, “Lsb1 Is a Negative Regulator of Las17 Dependent Actin Polymerization Involved in Endocytosis” (PLoS ONE, 2013)
Like-named read-outs stand apart in the source and are kept apart here. No constants are given. Whether binding was seen depends on the method and setting. In cells and extracts the contact can be indirect. Some binding calls cover weakened binding; strength is not graded here. Tags and fused reporters may be left off the sequences shown. Each block holds one molecule with its values, some of them ahead of it.

The chains behind the UniProt entries cited, without tags or fusion partners.
UniProt Q12446: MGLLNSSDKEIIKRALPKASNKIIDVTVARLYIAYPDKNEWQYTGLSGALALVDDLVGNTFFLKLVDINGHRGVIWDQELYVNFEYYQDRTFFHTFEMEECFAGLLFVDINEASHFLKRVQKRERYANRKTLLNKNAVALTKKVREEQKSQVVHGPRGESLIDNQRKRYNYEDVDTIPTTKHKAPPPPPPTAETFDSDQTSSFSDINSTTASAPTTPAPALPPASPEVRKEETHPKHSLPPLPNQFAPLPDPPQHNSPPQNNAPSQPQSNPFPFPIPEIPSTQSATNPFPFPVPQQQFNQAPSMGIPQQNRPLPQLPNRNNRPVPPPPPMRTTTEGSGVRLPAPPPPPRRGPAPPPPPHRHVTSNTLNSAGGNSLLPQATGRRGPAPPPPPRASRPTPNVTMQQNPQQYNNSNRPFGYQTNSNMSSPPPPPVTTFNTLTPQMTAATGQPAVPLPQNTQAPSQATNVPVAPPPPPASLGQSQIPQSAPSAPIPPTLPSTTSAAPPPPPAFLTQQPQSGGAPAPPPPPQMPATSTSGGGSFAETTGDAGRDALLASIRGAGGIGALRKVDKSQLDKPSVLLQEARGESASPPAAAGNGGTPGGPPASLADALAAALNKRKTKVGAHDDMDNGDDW

How the values were obtained:
[1] = target: T1, GST-SH3-Lsb1 (S. cerevisiae) (UniProt P53281); assay: pull-down; GST fusions coated on glutathione-Sepharose beads incubated with a total yeast protein extract containing the GFP-tagged protein; fluorescent halo around the beads seen by fluorescence microscopy; only the target purified
T1 sequence: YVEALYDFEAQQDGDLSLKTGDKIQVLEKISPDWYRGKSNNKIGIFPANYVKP

[2] = target: T2, GST-SH3-Lsb2 (S. cerevisiae) (UniProt Q06449); assay: as above
T2 sequence: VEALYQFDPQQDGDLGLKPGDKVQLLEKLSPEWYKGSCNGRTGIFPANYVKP

GST-Lsb1 (S. cerevisiae) = target: T3, GST-Lsb1 (S. cerevisiae) (UniProt P53281); assay: pull-down; GST-Lsb1 or GST-Lsb2 on glutathione Sepharose beads incubated with total protein extract from Las17-CFP expressing cells, 1 h at 4°C, washed with PBS+500 mM NaCl, Western blot with anti-GFP; only the target purified
T3 sequence: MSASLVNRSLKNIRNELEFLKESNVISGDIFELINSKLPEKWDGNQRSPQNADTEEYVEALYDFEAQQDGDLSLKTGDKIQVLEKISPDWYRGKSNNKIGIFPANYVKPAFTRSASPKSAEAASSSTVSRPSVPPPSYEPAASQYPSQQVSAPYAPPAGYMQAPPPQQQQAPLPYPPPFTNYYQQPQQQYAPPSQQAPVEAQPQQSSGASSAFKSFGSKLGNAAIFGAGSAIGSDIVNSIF

GST-Lsb2 (S. cerevisiae) = target: T4, GST-Lsb2 (S. cerevisiae) (UniProt Q06449); assay: as above
T4 sequence: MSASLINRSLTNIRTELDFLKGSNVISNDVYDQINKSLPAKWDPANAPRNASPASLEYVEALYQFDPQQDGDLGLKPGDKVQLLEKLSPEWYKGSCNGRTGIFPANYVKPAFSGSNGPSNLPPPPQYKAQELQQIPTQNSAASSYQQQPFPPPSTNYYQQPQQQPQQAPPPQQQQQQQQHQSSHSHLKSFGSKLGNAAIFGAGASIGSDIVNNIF

Lsb1-HA (S. cerevisiae) = target: T5, Lsb1-HA (S. cerevisiae) (UniProt P53281); assay: co-IP; Lsb1-HA or Lsb2-HA expressed in Lsb1-GFP or Lsb2-GFP strains; immunoprecipitated using γ-bind Sepharose beads and anti-HA antibodies; Western blot with anti-GFP and anti-HA
T5 sequence: T3 sequence

Lsb2-HA (S. cerevisiae) = target: T6, Lsb2-HA (S. cerevisiae) (UniProt Q06449); assay: as above
T6 sequence: T4 sequence

[3] = target: Las17-CFP (S. cerevisiae) (UniProt Q12446); assay: co-IP; extract of Las17-CFP cells expressing Lsb1-HA or Lsb2-HA; γ-bind Sepharose beads with rabbit anti-GFP serum, 2 mg total extract overnight at 4°C; lysis buffer 20 mM Tris pH 7.5, 100 mM NaCl, 5 mM EDTA, 1% Triton-X; Western blot with anti-HA, anti-GFP and anti-Pgk1
[4] = target: T1, GST-SH3-Lsb1 (S. cerevisiae); assay: pull-down; GST fusions coated on glutathione-Sepharose beads incubated with a total yeast protein extract containing the GFP-tagged protein; fluorescent halo around the beads seen by fluorescence microscopy; only the target purified; remark: listed apart in the source
[5] = target: T2, GST-SH3-Lsb2 (S. cerevisiae); assay: as above; remark: listed apart in the source

binding [1]: binds
binding [2]: binds
Molecule: Las17-GFP (from UniProt Q12446 1-633)

binding [3]: binds
B2: ubiquitinated Lsb2-HA (protein, UniProt Q06449 1-215)
chain: T4 sequence
modifications: ubiquitinated in vivo (sites not given)

binding [3]: no binding
B4: phosphoglycerate kinase Pgk1 (protein, UniProt P00560 1-416)
chain: MSLSSKLSVQDLDLKDKRVFIRVDFNVPLDGKKITSNQRIVAALPTIKYVLEHHPRYVVLASHLGRPNGERNEKYSLAPVAKELQSLLGKDVTFLNDCVGPEVEAAVKASAPGSVILLENLRYHIEEEGSRKVDGQKVKASKEDVQKFRHELSSLADVYINDAFGTAHRAHSSMVGFDLPQRAAGFLLEKELKYFGKALENPTRPFLAILGGAKVADKIQLIDNLLDKVDSIIIGGGMAFTFKKVLENTEIGDSIFDKAGAEIVPKLMEKAKAKGVEVVLPVDFIIADAFSADANTKTVTDKEGIPAGWQGLDNGPESRKLFAATVAKAKTIVWNGPPGVFEFEKFAAGTKALLDEVVKSSAAGNTVIIGGGDTATVAKKYGVTDKISHVSTGGGASLELLEGKELPGVAFLSEKK

binding (Lsb1-HA (S. cerevisiae)): binds
binding (Lsb2-HA (S. cerevisiae)): binds
B7: Lsb1-GFP (protein, UniProt P53281 1-241)
chain: T3 sequence

More lines, now with the values behind:

Molecule: Las17-CFP (from UniProt Q12446 1-633)
binding (GST-Lsb1 (S. cerevisiae)): binds
binding (GST-Lsb2 (S. cerevisiae)): binds

B1: Lsb2-GFP (protein, UniProt Q06449 1-215)
chain: T4 sequence
binding (Lsb1-HA (S. cerevisiae)): binds
binding (Lsb2-HA (S. cerevisiae)): binds

B3: Lsb2-HA (protein, UniProt Q06449 1-215)
chain: T4 sequence
binding [3]: binds

B5: Abp1-GFP (protein, UniProt P15891 1-592)
chain: MALEPIDYTTHSREIDAEYLKIVRGSDPDTTWLIISPNAKKEYEPESTGSSFHDFLQLFDETKVQYGLARVSPPGSDVEKIIIIGWCPDSAPLKTRASFAANFAAVANNLFKGYHVQVTARDEDDLDENELLMKISNAAGARYSIQTSSKQQGKASTPPVKKSFTPSKSPAPVSKKEPVKTPSPAPAAKISSRVNDNNDDDDWNEPELKERDFDQAPLKPNQSSYKPIGKIDLQKVIAEEKAKEDPRLVQKPTAAGSKIDPSSDIANLKNESKLKRDSEFNSFLGTTKPPSMTESSLKNDDDKVIKGFRNEKSPAQLWAERKAKQNSGNAETKAEAPKPEVPEDEPEGEPDVKDLKSKFEGLAASEKEEEEMENKFAPPPKKSEPTIISPKPFSKPQEPVKAEEAEQPKTDYKKIGNPLPGMHIEADNEEEPEENDDDWDDDEDEAAQPPLPSRNVASGAPVQKEEPEQEEIAPSLPSRNSIPAPKQEEAPEQAPEEEIEEEAEEAAPQLPSRSSAAPPPPPRRATPEKKPKENPWATAEYDYDAAEDNELTFVENDKIINIEFVDDDWWLGELEKDGSKGLFPSNYVSLGN
binding [4]: binds
binding [5]: binds

B6: Sla1-GFP (protein, UniProt P32790 1-1244)
chain: MTVFLGIYRAVYAYEPQTPEELAIQEDDLLYLLQKSDIDDWWTVKKRVIGSDSEEPVGLVPSTYIEEAPVLKKVRAIYDYEQVQNADEELTFHENDVFDVFDDKDADWLLVKSTVSNEFGFIPGNYVEPENGSTSKQEQAPAAAEAPAATPAAAPASAAVLPTNFLPPPQHNDRARMMQSKEDQAPDEDEEGPPPAMPARPTATTETTDATAAAVRSRTRLSYSDNDNDDEEDDYYYNSNSNNVGNHEYNTEYHSWNVTEIEGRKKKKAKLSIGNNKINFIPQKGTPHEWSIDKLVSYDNEKKHMFLEFVDPYRSLELHTGNTTTCEEIMNIIGEYKGASRDPGLREVEMASKSKKRGIVQYDFMAESQDELTIKSGDKVYILDDKKSKDWWMCQLVDSGKSGLVPAQFIEPVRDKKHTESTASGIIKSIKKNFTKSPSRSRSRSRSKSNANASWKDDELQNDVVGSAAGKRSRKSSLSSHKKNSSATKDFPNPKKSRLWVDRSGTFKVDAEFIGCAKGKIHLHKANGVKIAVAADKLSNEDLAYVEKITGFSLEKFKANDGSSSRGTDSRDSERERRRRLKEQEEKERDRRLKERELYELKKARELLDEERSRLQEKELPPIKPPRPTSTTSVPNTTSVPPAESSNNNNSSNKYDWFEFFLNCGVDVSNCQRYTINFDREQLTEDMMPDINNSMLRTLGLREGDIVRVMKHLDKKFGRENIASIPTNATGNMFSQPDGSLNVATSPETSLPQQLLPQTTSPAQTAPSTSAETDDAWTVKPASKSESNLLSKKSEFTGSMQDLLDLQPLEPKKAAASTPEPNLKDLEPVKTGGTTVPAAPVSSAPVSSAPAPLDPFKTGGNNILPLSTGFVMMPMITGGDMLPMQRTGGFVVPQTTFGMQSQVTGGILPVQKTGNGLIPISNTGGAMMPQTTFGAAATVLPLQKTGGGLIPIATTGGAQFPQTSFNVQGQQQLPTGSILPVQKTANGLISANTGVSMPTVQRTGGTMIPQTSFGVSQQLTGGAMMTQPQNTGSAMMPQTSFNAVPQITGGAMMPQTSFNALPQVTGGAMMPLQRTGGALNTFNTGGAMIPQTSFSSQAQNTGGFRPQSQFGLTLQKTGGIAPLNQNQFTGGAMNTLSTGGVLQQQQPQTMNTFNTGGVMQELQMMTTFNTGGAMQQPQMMNTFNTDGIMQQPQMMNTFNTGGAMQQPQQQALQNQPTGFGFGNGPQQSRQANIFNATASNPFGF
binding [4]: no binding
binding [5]: no binding

B8: Lsb1-HA (protein, UniProt P53281 1-241)
chain: T3 sequence
binding [3]: binds
